Data: publication PMC9911399, “Two distinct binding modes provide the RNA-binding protein RbFox with extraordinary sequence specificity”
Changes are numbered by the printed parent chain; changes in the protein carry UniProt numbers. The list shows a part of the results.

B1: ACAGCCG (DNA:RNA)
RNA: GGGAGACCGGAAUUCAGAUUGUCCACAGCCGUUAAAUCCCGUCGUAGCCACCA
DNA 1: CAATCTGAATTCCGGTCTCCC
DNA 2: TGGTGGCTACGACGGGATT
B2: UAGGGGA (DNA:RNA)
RNA: B1 RNA with A25U, C26A, A27G, C29G, C30G, G31A
DNA 1: CAATCTGAATTCCGGTCTCCC
DNA 2: TGGTGGCTACGACGGGATT
B3: GGGAACG (DNA:RNA)
RNA: B1 RNA with A25G, C26G, A27G, G28A, C29A
DNA 1: CAATCTGAATTCCGGTCTCCC
DNA 2: TGGTGGCTACGACGGGATT
B4: UGCUACG (DNA:RNA)
RNA: B1 RNA with A25U, C26G, A27C, G28U, C29A
DNA 1: CAATCTGAATTCCGGTCTCCC
DNA 2: TGGTGGCTACGACGGGATT
B5: GCUUAGA (DNA:RNA)
RNA: B1 RNA with A25G, A27U, G28U, C29A, C30G, G31A
DNA 1: CAATCTGAATTCCGGTCTCCC
DNA 2: TGGTGGCTACGACGGGATT
B6: ACGGUAU (DNA:RNA)
RNA: B1 RNA with A27G, C29U, C30A, G31U
DNA 1: CAATCTGAATTCCGGTCTCCC
DNA 2: TGGTGGCTACGACGGGATT
B7: UUGCGUU (DNA:RNA)
RNA: GGGAGACCGGAAUUCAGAUUGUCCUUGCGUUUUAAAUCCCGUCGUAGCCACCA
DNA 1: CAATCTGAATTCCGGTCTCCC
DNA 2: TGGTGGCTACGACGGGATT
B8: ACCAAAA (DNA:RNA)
RNA: B1 RNA with A27C, G28A, C29A, C30A, G31A
DNA 1: CAATCTGAATTCCGGTCTCCC
DNA 2: TGGTGGCTACGACGGGATT
B9: GAAUUGA (DNA:RNA)
RNA: B1 RNA with A25G, C26A, G28U, C29U, C30G, G31A
DNA 1: CAATCTGAATTCCGGTCTCCC
DNA 2: TGGTGGCTACGACGGGATT
B10: AUCCAGA (DNA:RNA)
RNA: B7 RNA with U25A, G27C, G29A, U30G, U31A
DNA 1: CAATCTGAATTCCGGTCTCCC
DNA 2: TGGTGGCTACGACGGGATT
B11: CGUCAGG (DNA:RNA)
RNA: B1 RNA with A25C, C26G, A27U, G28C, C29A, C30G
DNA 1: CAATCTGAATTCCGGTCTCCC
DNA 2: TGGTGGCTACGACGGGATT
B12: GCAAGAC (DNA:RNA)
RNA: B1 RNA with A25G, G28A, C29G, C30A, G31C
DNA 1: CAATCTGAATTCCGGTCTCCC
DNA 2: TGGTGGCTACGACGGGATT
B13: CUGUGUC (DNA:RNA)
RNA: B7 RNA with U25C, C28U, U31C
DNA 1: CAATCTGAATTCCGGTCTCCC
DNA 2: TGGTGGCTACGACGGGATT
B14: AUGAGGU (DNA:RNA)
RNA: B7 RNA with U25A, C28A, U30G
DNA 1: CAATCTGAATTCCGGTCTCCC
DNA 2: TGGTGGCTACGACGGGATT
B15: CUAGUCC (DNA:RNA)
RNA: B1 RNA with A25C, C26U, C29U, G31C
DNA 1: CAATCTGAATTCCGGTCTCCC
DNA 2: TGGTGGCTACGACGGGATT
B16: CAAGUGC (DNA:RNA)
RNA: B1 RNA with A25C, C26A, C29U, C30G, G31C
DNA 1: CAATCTGAATTCCGGTCTCCC
DNA 2: TGGTGGCTACGACGGGATT
B17: CGGCGUA (DNA:RNA)
RNA: B7 RNA with U25C, U26G, U31A
DNA 1: CAATCTGAATTCCGGTCTCCC
DNA 2: TGGTGGCTACGACGGGATT
B18: UGGAUGA (DNA:RNA)
RNA: B7 RNA with U26G, C28A, G29U, U30G, U31A
DNA 1: CAATCTGAATTCCGGTCTCCC
DNA 2: TGGTGGCTACGACGGGATT
B19: UCACGGU (DNA:RNA)
RNA: B7 RNA with U26C, G27A, U30G
DNA 1: CAATCTGAATTCCGGTCTCCC
DNA 2: TGGTGGCTACGACGGGATT
B20: CGAACGU (DNA:RNA)
RNA: B1 RNA with A25C, C26G, G28A, C30G, G31U
DNA 1: CAATCTGAATTCCGGTCTCCC
DNA 2: TGGTGGCTACGACGGGATT

Each binder was assayed against T1, RBFOX1 RRM RbFoxmut (Fox-RRM*) (Homo sapiens, UniProt Q9NWB1 109-208, R118D;E147R;N151S;E152T) (assay: EMSA; HiTS-Eq, 1 nM pool, 10 min; buffer printed only for the single-RNA assays: 10 mM Tris pH 7.5, 150 mM NaCl, 3.4 mM EDTA, 0.001% NP-40, 30 C). Settings: tags: His6 N-terminal (pET28a); label: 5' 32P.
T1 sequence: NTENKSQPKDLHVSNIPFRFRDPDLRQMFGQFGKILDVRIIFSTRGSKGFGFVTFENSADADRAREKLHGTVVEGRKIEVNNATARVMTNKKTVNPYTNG
In short: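 These values rest on relative association constants, computed from read-count changes of each RNA species versus the control reaction and normalised to the cognate motif. Reads came from free RNA recovered by 8% native PAGE after purified RbFox RRM (wild type or mutant) at increasing concentrations was equilibrated for 10 min in 50 µL with 1 nM of a 5′-radiolabelled pool with 7 randomized nucleotides and DNA-annealed flanks.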

| Binder | binding signal |
| --- | --- |
| B1 | 0.118 KA relative to UGCAUGU |
| B2 | 0.0788 KA relative to UGCAUGU |
| B3 | 0.472 KA relative to UGCAUGU |
| B4 | 0.264 KA relative to UGCAUGU |
| B5 | 0.122 KA relative to UGCAUGU |
| B6 | 0.112 KA relative to UGCAUGU |
| B7 | 0.126 KA relative to UGCAUGU |
| B8 | 0.0761 KA relative to UGCAUGU |
| B9 | 0.129 KA relative to UGCAUGU |
| B10 | 0.115 KA relative to UGCAUGU |
| B11 | 0.113 KA relative to UGCAUGU |
| B12 | 0.0722 KA relative to UGCAUGU |
| B13 | 0.436 KA relative to UGCAUGU |
| B14 | 0.128 KA relative to UGCAUGU |
| B15 | 0.0686 KA relative to UGCAUGU |
| B16 | 0.113 KA relative to UGCAUGU |
| B17 | 0.162 KA relative to UGCAUGU |
| B18 | 0.401 KA relative to UGCAUGU |
| B19 | 0.0803 KA relative to UGCAUGU |
| B20 | 0.175 KA relative to UGCAUGU |
